Laboratory results reported in PubChem BioAssay AID686979 (National Center for Advancing Translational Sciences (NCATS), 2013).
The whole screen tested about 420,000 compounds, of which about 50,000 (12%) were called active. Inconclusive results, whose numbers are uncertain, are shown with a selection of clear calls. Calls come from the whole dose curve; as a rule, active = well fitted inhibition curve with a large enough effect; inconclusive = small, poorly fitted or top-dose-only effect; inactive = flat fitted curve, though single readings scatter. No potency is given beside an inconclusive call; the fits are too rough.

Test: qHTS for Inhibitors of human tyrosyl-DNA phosphodiesterase 1 (TDP1): qHTS in cells in presence of CPT; note: nearly all actives have a fitted effect of over 55% in size
Conditions: chicken DT40 Tdp1-/-;hTDP1 cells + 20 nM CPT, ATP luminescence, 48 h; series mostly up to 46.2 µM
How it was run: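 Chicken DT40 Tdp1-/- cells stably complemented with human TDP1 were seeded at 400 cells/well in medium containing 20 nM camptothecin, exposed to pin-transferred compounds, and grown at 37 °C for at least 48 hr. Viability was read as ATP luminescence.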
Potency is the fitted concentration of half-maximal effect; tags give direction and shape of the fitted curve.

**Q.** With O=C(O)c1cc([N+](=O)[O-])ccc1NCCCc1ccccc1 as the compound, how does the Potency read?
**A.** The Potency was inconclusive [inhibitor, single point].

**Q.** With O=C(NCC(c1cccnc1)N1CCc2ccccc2C1)C(=O)Nc1ccccc1 (stereo not drawn) as the compound, how does the Potency read?
**A.** Its Potency is active: 20.6 µM.

**Q.** Which Potency does the source give for COc1ccccc1CNS(=O)(=O)c1ccc(F)c(C(=O)Nc2cc(Cl)ccc2OC)c1 here?
**A.** The Potency was inconclusive [inhibitor, single point].

**Q.** With Cc1cc(C)c(NC(=O)/C(=C/c2ccco2)c2ccccc2)c(C)c1 as the compound, how does the Potency read?
**A.** The Potency was inconclusive [inhibitor, single point].

**Q.** Which Potency does the source give for Cc1ccccc1NC(=O)Cc1nc(COC(=O)CC(C)c2ccccc2)cs1 (stereo not drawn) here?
**A.** The Potency was “inactive”.

**Q.** For Cc1ccc(OCCn2nnc3ccccc32)cc1C, which Potency is on record?
**A.** Its Potency is inconclusive [inhibitor, single point].

**Q.** For O=C(c1cc(Cl)nc2ccccc12)N1CCN(S(=O)(=O)c2ccccc2[N+](=O)[O-])CC1, which Potency is on record?
**A.** The Potency was inconclusive [inhibitor, single point].

**Q.** For CCCOc1ccc(F)cc1-c1cc(C(=O)NC(C)C)[nH]n1, which Potency is on record?
**A.** Its Potency is inconclusive [inhibitor, single point].

**Q.** Which Potency does the source give for COc1ccc(-c2cc(=O)oc3cc(OC(=O)C4CCCCC4)c(Cl)cc23)cc1 here?
**A.** Its Potency is active: 23.1 µM.

**Q.** With CC(C)C(O)(c1ccccc1)C(CN1CCOCC1)c1ccccc1 (stereo not drawn) as the compound, how does the Potency read?
**A.** The Potency was inconclusive [inhibitor, single point].

**Q.** For Cc1cccc(C(=O)N(Cc2nc3ccccc3c(=O)[nH]2)C2CCCCC2)c1, which Potency is on record?
**A.** Its Potency is inconclusive [inhibitor, single point].

**Q.** Which Potency does the source give for CC(C)(C)c1ccc(-c2csc(NNC3=NCCCCC3)n2)cc1 here?
**A.** Its Potency is inconclusive [inhibitor, single point].

**Q.** Which Potency does the source give for COc1cccc2c1Oc1ncccc1N(C(=O)Nc1cccc(Cl)c1)C2 here?
**A.** Its Potency is inconclusive [inhibitor, single point].

**Q.** With COc1ccc(N(C)S(=O)(=O)c2cccc3cccnc23)c(OC)c1 as the compound, how does the Potency read?
**A.** Its Potency is inconclusive [inhibitor, single point].

**Q.** With C[C@H](CO)N1C[C@H](C)[C@@H](CN(C)Cc2ccc(Cl)c(Cl)c2)Oc2c(NS(=O)(=O)c3ccc(F)cc3)cccc2C1=O as the compound, how does the Potency read?
**A.** Its Potency is inconclusive [inhibitor, single point].

**Q.** For Cc1ccc(NC(=S)NCCSc2ccc(Cl)cc2)cc1, which Potency is on record?
**A.** The Potency was “inactive”.

**Q.** Which Potency does the source give for Cn1cc(C(=O)c2ccc(F)cc2)cc1-c1nc2ccccc2n1C here?
**A.** Its Potency is inconclusive [inhibitor, single point].

**Q.** Which Potency does the source give for O=C(NCc1cccc(F)c1)c1cccc(OC2CCN(C(=O)C3CC3)CC2)c1 here?
**A.** The Potency was inconclusive [inhibitor, single point].
